Values joined by “and” are separate entries in the source; they are usually repeats but may differ in a detail not shown here. Equal entries are not always repeated. Out of some 350,000 compounds screened, about 2,300 (0.66%) were called active. Inconclusive results, whose numbers are uncertain, are shown with a selection of clear calls.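 The calls were made as follows: active = mean inhibition of at least 50% after viability correction, with every replicate also passing that limit; inconclusive = mean reaches 50% but only one of two replicates passes; inactive = the rest.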
Assay: blockers of EWS/Fli transcriptional output – A673 cells, NR0B1 luciferase, luminescence, MLPCN library, primary screen (AID 651661);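 also: firefly luciferase signal divided by Alamar Blue viability fluorescence both relative to DMSO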
Conditions: A673 NR0B1-luciferase reporter, viability-normalised; at 12.6 µM; hits give high values

Structure (SMILES) | inhibition
CCC(=O)N[C@H]1C=C[C@H](CC(=O)OC)O[C@H]1CO | inactive: -2.22%
CC(C)NC(=O)N(C)C[C@H]1Oc2ccc(NC(=O)Nc3ccc(C(F)(F)F)cc3)cc2CC(=O)N([C@@H](C)CO)C[C@H]1C | active: 63.4%
COc1cc(NC(=O)c2csc(N)n2)cc(C(=O)Nc2cccc(C(F)(F)F)c2)c1 | active: 54.4% and active: 61.5%
C[C@H]1CN([C@@H](C)CO)C(=O)c2cccc(NC(=O)NC3CCCCC3)c2O[C@@H]1CN(C)CC1CCCCC1 | inactive: 11.6%
C[C@@H]1CN([C@H](C)CO)S(=O)(=O)c2ccc(C#Cc3ccncc3)cc2O[C@H]1CN(C)S(=O)(=O)c1ccc(F)cc1 | inconclusive: 52.8%
O=C(C[C@H]1CC[C@@H](NC(=O)Cc2ccccn2)[C@@H](CO)O1)NCCc1ccncc1 | inactive: -2.4%
COC(=O)Cc1ccc(NC(=O)c2ccccc2Br)cc1 | inconclusive: 50.7%
c1ccc2c(C[C@@H]3CNCCN3CCCCC3CCCCC3)cccc2c1 | inactive: 3.47%
COc1cc(/C=C2\SC(=Nc3ccc(O)cc3)NC2=O)cc(OC)c1OC | inconclusive: 52%
C[C@@H]1CCCCO[C@@H](CN(C)Cc2ccccc2)[C@H](C)CN([C@H](C)CO)C(=O)c2cc(NC(=O)Nc3cccc4ccccc34)ccc2O1 | inconclusive: 56.3%
COC(=O)C1=C(C)N(Cc2cccc(C(F)(F)F)c2)C(=NCc2ccc(OC)cc2)NC1c1ccc(F)cc1 (stereo not drawn) | inconclusive: 52.2%
COc1ccc(N=[N+]([O-])c2ccc(OC)cc2)cc1 | inconclusive: 51.1%
Cc1ccc(-c2nnc(SCCC(=O)N3CCOCC3)o2)cc1 | inconclusive: 50.3%
O=C(Nc1ccc(S(=O)(=O)NC2=NCCCCC2)cc1)c1ccc([N+](=O)[O-])s1 | active: 59.4%
COCCNC(=O)C(=O)Nc1ccc2c(c1)N(S(=O)(=O)c1cccs1)CCC2 | inconclusive: 53.6%
Cc1ccc(C(C)C)c(OCc2nn(CC(=O)c3ccc(Cl)cc3)c3[n+]2CCCCC3)c1 | inconclusive: 50%
C=CCn1c(=O)c2c(nc3n2CC(C)CN3c2cccc(OC)c2)n(C)c1=O (stereo not drawn) | inactive: 3.4%
O=C(C[C@@H]1C[C@H]2c3cc(NS(=O)(=O)c4ccc(F)cc4)ccc3O[C@H]2[C@@H](CO)O1)NCc1ccc(Oc2ccccc2)cc1 | active: 59.3%
O=C(CCN1CCCCC1)N[C@H]1CC[C@@H](CCn2cc(-c3ccc(F)cc3)nn2)O[C@H]1CO | inconclusive: 51.4%
Cc1nc(N/N=C/c2ccccn2)sc1C | inconclusive: 51.8%
CCN(CCO)c1ccc(N=Nc2cc(C)[nH]n2)cc1 | active: 63.6%
CCN1CCN(Cc2ccc(NC(=O)c3cc(NC(=O)c4cc5cccc(OC)c5o4)cc(OC)c3)cc2C(F)(F)F)CC1 | inconclusive: 50.7%
COc1cccc(NC(=O)c2ccc3c(c2)OCCO3)c1 | inconclusive: 50.4%
CC(=O)Nc1ccc2c(c1)C(=O)N(C)[C@H]1CC[C@@H](CC(=O)NCc3ccccc3Cl)O[C@@H]1CO2 | inactive: 6.09%
COc1ccc(CCN2C(=O)c3ccccc3NC2c2cc(Cl)c(O)c(OC)c2)cc1 (stereo not drawn) | inconclusive: 51.7%

Structure (SMILES) | inhibition
CC1(C)Cc2c(sc3ncnc(NNC(=S)NCc4ccccc4)c23)CO1 | inconclusive: 50%
CCOC(=O)c1sc(NC(=S)NC(=O)C2CC2)cc1C | inconclusive: 50.1%
Cc1cc(C)cc(C(=O)NC(=S)Nc2ccc(Cc3ccncc3)cc2)c1 | active: 65.6%
CC(=O)[C@@]1(O)Cc2c(O)c3c(c(O)c2[C@H](O[C@H]2C[C@H](N)[C@H](O)[C@H](C)O2)C1)C(=O)c1ccccc1C3=O | active: 59.2%
Cc1ccc(-c2cnc3ccccc3n2)cc1C | inconclusive: 54.7%
CC[C@@]1(O)C(=O)OCc2c1cc1n(c2=O)Cc2cc3c(N)cccc3nc2-1 | inconclusive: 52%
Cc1ccc(C)c(C(=O)c2ccccc2NC(=O)c2ccccn2)c1 | inconclusive: 50%
O=[N+]([O-])c1ccc(/C=N/N=C/c2ccc([N+](=O)[O-])o2)o1 | inconclusive: 52.4%
COC(=O)Cn1c(=O)c(C(=O)CCl)c(N)n(Cc2ccccc2)c1=O | inconclusive: 52.2%
COc1ccc(-c2cc(NC=O)c3ncc(-c4ccc(OC)c(OC)c4)n3c2)cc1 | inconclusive: 50.4%
C[C@@H]1CN([C@H](C)CO)S(=O)(=O)c2ccc(C#CC3CC3)cc2O[C@H]1CN(C)Cc1ccncc1 | inconclusive: 52.3%
O=C(c1cnccn1)N1CC(=O)N2[C@@H](CO)[C@H](c3ccc(C#CC4CC4)cc3)[C@@H]2C1 | inactive: -1.63%
CCC(=O)NC[C@@H]1[C@H](c2ccccc2)[C@H](CO)N1C(=O)C1CCC1 | inactive: -3.72%
COc1ccc(C(C)NCCC(c2ccc(OC(C)C)cc2)c2ccccc2OC)cc1 (stereo not drawn) | inconclusive: 52.1%
Cc1ccc(C(=O)Nc2ccc3ccccc3c2)cc1 | inconclusive: 59%
O=C(COC(=O)c1ccccc1Nc1ccccc1)Nc1ccccc1 | inconclusive: 53%
CCOc1ccccc1C1CC(=O)Nc2cc(C)c(C)cc21 (stereo not drawn) | inconclusive: 51.9%
Cc1nc2cc(-c3ccccc3)nn2c(C)c1CCC(=O)NC(C)c1ccc2c(c1)OCCO2 (stereo not drawn) | inconclusive: 51.2%
C[C@H](CO)N1C[C@H](C)[C@@H](CN(C)Cc2ccc(C(=O)Nc3ccccc3N)cc2)Oc2ccc(NC(=O)C3CCCCC3)cc2CC1=O | inconclusive: 51%
Cc1ccc(S(=O)(=O)N(C)C[C@@H]2Oc3c(NC(=O)Nc4ccc5c(c4)OCO5)cccc3C(=O)N([C@@H](C)CO)C[C@H]2C)cc1 | inactive: -5.94%
CCc1csc(N2[C@H](C#N)[C@H](c3ccc(C#Cc4ccc(F)cc4)cc3)[C@H]2CO)n1 | inconclusive: 50.5%
COC(=O)c1cc(C(=O)N2CCN(c3cccc(Cl)c3)CC2)cc([N+](=O)[O-])c1 | active: 50.9%
COc1ccc(CN(C)C[C@H]2OCCCC[C@@H](C)Oc3ccc(NC(=O)Nc4cccc5ccccc45)cc3C(=O)N([C@H](C)CO)C[C@H]2C)cc1 | active: 71.8%
COc1cc(C(=O)NC2CCN(C)CC2)ccc1Nc1ncc2c(n1)N(Cc1ccccc1)CCC(=O)N2C | active: 54.9%
O=C1c2ccc3c4c(ccc(c24)C(=O)N1CCCCO)C(=O)N(CCCCO)C3=O | inconclusive: 52.3%

Structure (SMILES) | inhibition
COc1cc(Nc2c3c(nc4ccccc24)CCC3)cc(OC)c1OC | inconclusive: 51.3%
COc1cccc(CN(C(=O)Cc2c[nH]c3ccccc23)C(C(=O)NC2CCCCC2)c2ccc(C)o2)c1 (stereo not drawn) | inconclusive: 50.4%
O=C(COC(=O)c1c2c(nc3ccccc13)/C(=C\c1cccs1)CCC2)Nc1ccccc1 | inactive: -16.1%
CC/C(=C\C1CCCCC1)C(NP(=O)(c1ccccc1)c1ccccc1)c1ccccc1 (stereo not drawn) | inactive: 27.9%
O=C(Nc1ccccc1F)N1CCCCN2[C@H](CO)[C@H](c3ccc(/C=C/c4ccccc4)cc3)[C@H]2C1 | active: 76.1%
CC1=CC(C)(C)N2C(=O)C(=O)c3cc(OC(=O)c4ccco4)cc1c32 | inconclusive: 55.7%
COC(=O)c1cccc(-c2noc(-c3ccccc3F)n2)c1 | active: 89.8%
O=C(O)c1ccc(S(=O)(=O)/N=C2\C=C(Nc3ccccc3F)C(=O)c3ccccc32)cc1 | inconclusive: 53.3%
COc1cc(NS(C)(=O)=O)ccc1Nc1c2ccccc2nc2ccccc12 | active: 57.6%
Cc1ccc(S(=O)(=O)Nc2ccc3c(c2)C(=O)N([C@H](C)CO)C[C@@H](C)[C@H](CN(C)Cc2ccc(C(F)(F)F)cc2)OCCCC[C@H](C)O3)cc1 | active: 65.8%
O=C(OCc1ccccc1)c1ccc(NCc2cc(O)ccc2O)cc1 | active: 61.9%
Cc1noc(C)c1S(=O)(=O)Nc1ccc2c(c1)C(=O)N([C@@H](C)CO)C[C@@H](C)[C@H](CN(C)C(=O)CCC(F)(F)F)OCCCC[C@@H](C)O2 | inconclusive: 54.5%
Cc1cccc(NS(=O)(=O)c2ccc(-c3cnc(C4CC4)o3)cc2)c1 | active: 53.1%
COc1ccc(CN(C)C[C@H]2OCCCC[C@@H](C)Oc3ccc(NC(=O)Nc4ccc(F)cc4)cc3C(=O)N([C@H](C)CO)C[C@H]2C)cc1 | active: 67.1%
COc1ccc(/C=C/C(=O)c2cc(F)ccc2OC(=O)c2ccccc2C)cc1OC | inconclusive: 50.4%
COc1ccc(NC(=O)[C@H](Cc2c[nH]c3ccccc23)NC(=O)[C@@H]2Cc3ccccc3CN2)cc1 | inactive: -60.2%
C[C@@H]1CCCCO[C@H](CN(C)Cc2ccc3c(c2)OCO3)[C@@H](C)CN([C@@H](C)CO)C(=O)c2cc(NS(=O)(=O)c3ccc(Cl)cc3)ccc2O1 | inconclusive: 51.4%
Cc1cc(N2CCOCC2)ccc1/C=C\[N+](=O)[O-] | inconclusive: 52.4%
CCCOCCOC(=O)c1[nH]c2c(c1C)C(=O)CC(c1cc(OC)ccc1OC)C2 (stereo not drawn) | active: 56.1%
COc1ccc(-c2ccc3c(c2)[C@H]2[C@H](CCN2S(=O)(=O)c2ccc(OC)cc2)[C@@H](CO)N3C)cc1 | active: 54.7%
Cc1ccc(NC(=O)C(=O)Nc2ccccn2)cc1 | inconclusive: 51.5%
C[C@@H]1CCCCO[C@@H](CN(C)C(=O)C2CCCCC2)[C@@H](C)CN([C@H](C)CO)C(=O)c2cc(NC(=O)Nc3cccc4ccccc34)ccc2O1 | inconclusive: 54.9%
O=C(Cn1cnc2c(NCc3ccccc3)ncnc21)NCc1ccccc1 | active: 55.6%

From PubChem BioAssay AID651661 (Broad Institute, 2012)
